# Experimental data from PubChem BioAssay AID1508642 (National Center for Advancing Translational Sciences (NCATS), 2021).
# Screen size: about 43,000 compounds; about 200 (0.47%) were called active. Another 12% or so got no clear call; they are omitted. The call rests on the fitted dose curve; in most records, active means well fitted cell-killing curve with a large enough effect; inconclusive means small, poorly fitted or top-dose-only effect, or effect the other way; inactive means flat fitted curve, though single readings scatter. The list shows a part of the results.
# Experiment: Cell viability qHTS assay in S16 Pmp22-F2sN cells; further: nearly all actives have a fitted effect of over 65% in size
# Conditions: S16 Pmp22-F2sN Schwann cells (luciferase reporters placed in the Pmp22 gene) viability, CellTiter-Glo, 24 h; series mostly up to 57.5 µM; activity change, negative = cytotoxicity: at the top concentration
# Excerpt: Assay Provider: Jim Inglese Ph.D. National Center for Advancing Translational Science, National Institutes of Health, Rockville, MD CMT is a heterogeneous group of neurological disorders that affect approximately 1 in 2,500 people. In particular, the most common form of CMT, CMT1A is genetically linked to the duplication of the PMP22 gene which leads to Schwann cell overexpression, thus manifesting itself as a typical case of dose-sensitive diseases. To identify small molecule compounds that can mediate the expression of PMP22 we developed a phenotypic assay screening strategy by utilizing genome editing techniques to construct Schwann cell lines containing novel reporter technology to monitor the transcriptional or translational regulation of PMP22. For high sensitivity we use a bioluminescent reporter system embedded in the 3' UTR of the PMP22 gene (S16(c9) Pmp22-F2sN) to identify compounds that inhibit gene expression. […] We can further discriminate the effect of all transcriptionally active molecules on PMP22 translation or stability with an assay that incorporates a short NLuc peptide (HiBiT) at the C-terminus of expressed PMP22 (S16(f8) PMP22-HiBiT) allowing alpha complementation and luminescence detection of membrane-associated PMP22 protein. These assays were screened against the NCATS Sytravon Library Collection. Miniaturization of these assays to 1536-well plate format for quantitative high throughput screening (qHTS) yielded rich data sets immediately from the qHTS assay (S16(c9) Pmp22-F2sN), when compared with data from a cell viability assay (Cell TiterGlo) to identify compounds that decreased the output signals through cellular toxicity to streamline the selection process of actives for subsequent characterization using the HiBiT assay (S16(f8) PMP22-HiBiT).
# Cell viability assay in S16 Pmp22-F2sN cells PROTOCOL TABLE (format as described by Inglese J, Shamu CE and Guy RK. 2007) SEQUENCE No. (e.g., 1, 2, 3, etc.); […] (e.g., Cells, Incubation, Reagent, etc.); VALUE and DESCRIPTION. 1. Cells. Add 500-1,000 cells in 4 uL in growth media (DMEM High Glucose, No Phenol Red media + 10% heat-inactivated FBS + 1% Pen/Strep supplemented media) per well into Greiner 1536-well white/solid bottom high base, TC-treated plates. 2. Compounds. Library compounds and controls added at 23nL per well, transferred by Pin Tool. 3. Incubation. Incubate plates at 37C, 5% CO2, 95% RH for 24 h. 4. Reagent. Add 3uL CellTiter-Glo per well of Greiner 1536-well plates. 5. Incubation. Incubate plates at room temperature for 15 min., protect from light. 6. Detector. FLuc luminescence measured using CCD-based camera (Viewlux). NOTES (numbers refer to Sequence numbers above; values are from representative experiments) 6. Luminescence Read: Clear filter; Exposure = 1 sec, Gain = High, Speed = Slow, Binning = 2X REFERENCES: 1. Inglese J, Shamu CE and Guy RK, Reporting data from high throughput screening of small molecule libraries, Nature Chemical Biology, 2007, 3(8): 438-441. doi.org/10.1038/nchembio0807-438 2. Yasgar A, Shinn P, Jadhav A, Auld DS, Michael S, Zheng W, Austin CP, Inglese J and Simeonov A, Compound Management for Quantitative High-Throughput Screening. J. Assoc. Lab. Auto., 2008, 13: 79-89. doi: 10.1016/j.jala.2007.12.004
# On the % scale 0 is the no-effect control and ±100 the full control effect.
row,Compound,"activity change, negative = cytotoxicity"
1,Cc1ccc(C)c(NC(=O)c2oc(=O)c3ccccc3c2-c2ccccc2)c1,inactive: 4.22%
2,Cc1cc2nc(-c3ccc(OCc4ccccc4F)cc3)cc(C(F)(F)F)n2n1,inactive: 25.2%
3,CCCc1nn2c(=O)cc(COC(=O)c3ccc4c(c3)OCO4)nc2s1,inactive: 26.6%
4,CCOC(=O)c1cccc(NC(=O)C2=C(C)C(=O)OC23CCCCC3)c1,inactive: 6.11%
5,Cc1ccc(C)c(N2CCN(C(=O)Cn3cnc4nc5c(cc4c3=O)CCCC5)CC2)c1,inactive: 4.16%
6,Cn1c(NCCN)nc2c1c(=O)n(Cc1ccccc1)c(=O)n2C,inactive: -23.7%
7,COc1cccc(C(=O)Nc2nc(-c3nnn(-c4cccc(Cl)c4C)c3C)ns2)c1,inactive: 29.6%
8,COc1ccc(NC(=O)Cn2c(=O)n(-c3ccc(OC)cc3)c(=O)c3sc4ccccc4c32)cc1,inactive: -1.34%
9,COc1ccc2c(CNCc3ccco3)c(C(=O)O)n(Cc3cccc(F)c3)c2c1,inactive: -8.07%
10,COc1ccc(CNc2ncnc3c2c(-c2ccccc2)cn3-c2ccc(C)c(Cl)c2)cc1,inactive: -2.2%
11,COc1cc(C(=O)Nc2cc(C)c(O)c(-c3nc4ccccc4s3)c2)cc(OC)c1OC,inactive: -8.59%
12,CCCN(CCC)C(=O)C1CCN(c2cc(C)nc3c(-c4ccc(Cl)cc4)c(C)nn23)CC1,inactive: 1.01%
13,COc1ccc(C(=O)Nc2ccc(-c3nc4ccccc4s3)c(Cl)c2)cc1Cl,inactive: -0.389%
14,Cn1c(NCCCO)nc2c1c(=O)n(Cc1cccc(F)c1)c(=O)n2C,inactive: 2.71%
15,Cc1ccc(CC(=O)NCc2nc(-c3ccccc3)no2)cc1,inactive: 13.9%
16,O=C(NCCc1ccccc1Cl)c1cc2ccccn2n1,inactive: -1.53%
17,COC(=O)c1c(NC(=O)c2cc(=O)c3cc(C)cc(C)c3o2)sc2c1CCC2,inactive: 4.55%
18,CCOC(=O)c1ccc(NC(=O)c2nc(SCc3ccc(F)cc3)ncc2Cl)cc1,inactive: 9.9%
19,Cc1cc(SCC(=O)Nc2ccc(F)cc2F)nc(=O)[nH]1,inactive: -0.405%
20,CCCCn1c(=O)c2oc3ccccc3c2n(Cc2ccc(C)cc2)c1=O,inactive: -6.84%
21,CCOc1ccc2c(c1)NC(c1ccc(OCC)c(OCC)c1)=NC(c1ccc(F)cc1)=N2,inactive: 2.94%
22,CCc1ccc(N(CC)C(=O)c2cn(C)c(=O)c3cc(OC)c(OC)cc23)cc1,inactive: 28.3%
23,Cc1ccc(S(=O)(=O)NCCc2nnc3ccc(SCC(=O)Nc4c(C)cc(C)cc4C)nn23)cc1,inactive: 2.07%
24,CCn1c(CNC(=O)c2ccc(OC)cc2)nnc1SCC(=O)Nc1cccc(C)c1,inactive: -0.916%
25,CC(C)(C)C1CCc2c(sc3nc(-c4cc5cc(Cl)ccc5oc4=O)[nH]c(=O)c23)C1 (stereo not given),inactive: 10.9%

row,Compound,"activity change, negative = cytotoxicity"
1,Cc1ccc(NC(=O)Cn2nc(C(F)(F)F)c3c2CCCC3)cc1,inactive: 3.74%
2,COc1ccc(NC(=O)CN2C(=O)COc3ccc(S(=O)(=O)NC4CCCC4)cc32)cc1OC,inactive: 11.7%
3,Cc1cc2c(cc1S(=O)(=O)NCc1ccc(F)cc1)OCC(=O)N2,inactive: 7.38%
4,Cc1ccc(-n2ncc3c(NC4CCCCC4)ncnc32)cc1C,inactive: 11.3%
5,O=C(c1ccccc1)n1nc(-c2ccc(Cl)cc2)nc1NCc1ccco1,inactive: -16.8%
6,CSc1ccc(CCNC(=O)Cn2ncc3c([nH]c4ccccc43)c2=O)cc1,inactive: -1.15%
7,CCCN(C(=O)c1ccc2c(=O)n3c(nc2c1)CCCCC3)c1cccc(Cl)c1,inactive: -11.2%
8,Cc1cc(C)cc(NCc2nnc3n2CCCCC3)c1,inactive: -1.07%
9,Cc1ccc2occ(CC(=O)Nc3c(C)cccc3C)c2c1,inactive: 3.78%
10,CC(=O)N1CCc2cc(Br)cc(S(=O)(=O)CCC(=O)NCc3ccc(F)cc3)c21,inactive: 0.233%
11,O=C(CCNS(=O)(=O)c1ccc2c(c1)CCN2C(=O)C1CC1)Nc1ccc(Cl)cc1,inactive: -28.3%
12,COc1ccc(OCC(=O)N2CCN(C(=O)c3ccc(OC)c(OC)c3)CC2)cc1,inactive: 9.62%
13,Cc1cccc(C)c1NC(=O)CCSCCc1ccccn1,inactive: -7.23%
14,COc1cn(CC(=O)Nc2ccc(C)cc2)c(CN2CCCCC2)cc1=O,inactive: -2.18%
15,CC(=O)c1ccc(NC(=O)c2sc(-n3nc(C)c(Cc4ccc5c(c4)OCO5)c3C)nc2C)cc1,inactive: 2.06%
16,O=c1oc2c(CN3CCOCC3)c(O)ccc2cc1-c1ccccc1,inactive: 3.72%
17,COc1ccc(N2CCN(C(=O)c3noc4c3CCCCC4)CC2)cc1,inactive: -4.9%
18,CCC1CN(C(=O)N2CCC(C(=O)NCc3cccs3)CC2)c2ccccc2O1 (stereo not given),inactive: -6.53%
19,Cc1ccc(N2C(=O)CSC23C(=O)N(CC(=O)NCCc2ccccc2)c2ccccc23)cc1 (stereo not given),inactive: -3.67%
20,Cc1ccc(NC(=O)c2ccc(-c3ccccc3)s2)cc1,inactive: 3.22%
21,Cc1ccc(C(=O)OCc2cc(=O)n3nc(CC(C)C)sc3n2)cc1,inactive: -5.07%
22,COc1ccc(CCNC(=O)c2cnc3sc(N4CCCCCC4)nn3c2=O)cc1,inactive: 9.87%
23,O=C(NCCc1nc2ccccc2n1Cc1ccc(Cl)cc1)c1ccccc1,inactive: 7.72%
24,CCOC(=O)c1ccccc1NC(=O)c1sc2nc(-c3ccc(F)cc3)cn2c1C,inactive: -1.58%
25,Cc1nnc(NC(=O)CSc2nc3c([nH]c4ccccc43)c(=O)n2-c2cccc(Cl)c2)s1,inactive: 0.765%
